The other results are listed elsewhere or left out.
Columns and labels:
Experiment in all cases: glycan array binding signal (z-score within array); higher = stronger binding
Settings in all cases: glycan notation: IUPAC condensed, linker removed
[1] = molecular target: Man(a1-2)Man(a1-2)Man(a1-3)Man
Outline: (§1)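 The binding signal is a Z-score computed within each array and averaged over linkers. Arrays of the same protein sequence at different concentrations or buffers were also averaged together. Data originate from 3228 arrays in the Consortium for Functional Glycomics database, kept only where the protein sequence was available.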

[2] = molecular target: Man(a1-2)Man(a1-2)Man(a1-6)[Man(a1-3)]Man
Outline: as §1

Man(a1-2)Man(a1-3)Man = molecular target: Man(a1-2)Man(a1-3)Man
Outline: as §1

[3] = molecular target: Man(a1-2)Man(a1-3)[Man(a1-2)Man(a1-6)]Man
Outline: as §1

[4] = molecular target: Man(a1-2)Man(a1-3)[Man(a1-2)Man(a1-6)]Man(a1-6)[Man(a1-2)Man(a1-2)Man(a1-3)]Man
Outline: as §1

[5] = molecular target: Man(a1-2)Man(a1-3)[Man(a1-2)Man(a1-6)]Man(a1-6)[Man(a1-2)Man(a1-2)Man(a1-3)]Man(b1-4)GlcNAc(b1-4)GlcNAc
Outline: as §1

[6] = molecular target: Man(a1-2)Man(a1-3)[Man(a1-6)]Man(a1-6)[Man(a1-2)Man(a1-3)]Man(b1-4)GlcNAc(b1-4)GlcNAc
Outline: as §1

[7] = molecular target: Man(a1-2)Man(a1-6)[Man(a1-3)]Man(a1-6)[Man(a1-2)Man(a1-2)Man(a1-3)]Man
Outline: as §1

[8] = molecular target: Man(a1-2)Man(a1-6)[Man(a1-3)]Man(a1-6)[Man(a1-2)Man(a1-2)Man(a1-3)]Man(b1-4)GlcNAc(b1-4)GlcNAc
Outline: as §1

Man(a1-3)[Man(a1-6)]Man = molecular target: Man(a1-3)[Man(a1-6)]Man
Outline: as §1

[9] = molecular target: Man(a1-3)[Man(a1-6)]Man(a1-6)[Man(a1-2)Man(a1-3)]Man(b1-4)GlcNAc(b1-4)GlcNAc
Outline: as §1

[10] = molecular target: Man(a1-3)[Man(a1-6)]Man(a1-6)[Man(a1-3)]Man
Outline: as §1

[11] = molecular target: Man(a1-3)[Man(a1-6)]Man(a1-6)[Man(a1-3)]Man(b1-4)GlcNAc(b1-4)GlcNAc
Outline: as §1

[12] = molecular target: Man(a1-3)[Man(a1-6)]Man(b1-4)GlcNAc(b1-4)GlcNAc
Outline: as §1

[13] = molecular target: Man(a1-3)[Man(a1-6)]Man(b1-4)GlcNAc(b1-4)[Fuc(a1-6)]GlcNAc
Outline: as §1

Man(a1-6)Man = molecular target: Man(a1-6)Man
Outline: as §1

Man(b1-4)GlcNAc = molecular target: Man(b1-4)GlcNAc
Outline: as §1

MurNAc(b1-4)GlcNAc = molecular target: MurNAc(b1-4)GlcNAc
Outline: as §1

Neu5Ac(a2-3)Gal = molecular target: Neu5Ac(a2-3)Gal
Outline: as §1

[14] = molecular target: Neu5Ac(a2-3)Gal(b1-3)GalNAc
Outline: as §1

[15] = molecular target: Neu5Ac(a2-3)Gal(b1-3)GalNAc(b1-3)Gal(a1-4)Gal(b1-4)Glc
Outline: as §1

[16] = molecular target: Neu5Ac(a2-3)Gal(b1-3)GalNAc(b1-4)[Neu5Ac(a2-3)]Gal(b1-4)Glc
Outline: as §1

[17] = molecular target: Neu5Ac(a2-3)Gal(b1-3)GalNAc(b1-4)[Neu5Ac(a2-8)Neu5Ac(a2-3)]Gal(b1-4)Glc
Outline: as §1

[18] = molecular target: Neu5Ac(a2-3)Gal(b1-3)GalNAc6S
Outline: as §1

[19] = molecular target: Neu5Ac(a2-3)Gal(b1-3)GlcNAc
Outline: as §1

[20] = molecular target: Neu5Ac(a2-3)Gal(b1-3)GlcNAc(b1-2)Man
Outline: as §1

[21] = molecular target: Neu5Ac(a2-3)Gal(b1-3)GlcNAc(b1-2)Man(a1-3)[GlcNAc(b1-4)][Neu5Ac(a2-3)Gal(b1-3)GlcNAc(b1-2)Man(a1-6)]Man(b1-4)GlcNAc(b1-4)GlcNAc
Outline: as §1

[22] = molecular target: Neu5Ac(a2-3)Gal(b1-3)GlcNAc(b1-2)Man(a1-3)[Neu5Ac(a2-3)Gal(b1-3)GlcNAc(b1-2)Man(a1-6)]Man(b1-4)GlcNAc(b1-4)GlcNAc
Outline: as §1

[23] = molecular target: Neu5Ac(a2-3)Gal(b1-3)GlcNAc(b1-3)Gal(b1-3)GlcNAc
Outline: as §1

[24] = molecular target: Neu5Ac(a2-3)Gal(b1-3)GlcNAc(b1-3)Gal(b1-4)GlcNAc
Outline: as §1

[25] = molecular target: Neu5Ac(a2-3)Gal(b1-3)GlcNAc(b1-3)GalNAc
Outline: as §1

[26] = molecular target: Neu5Ac(a2-3)Gal(b1-3)GlcNAc(b1-4)Gal(b1-4)Glc
Outline: as §1

[27] = molecular target: Neu5Ac(a2-3)Gal(b1-3)GlcNAc(b1-6)GalNAc
Outline: as §1

[28] = molecular target: Neu5Ac(a2-3)Gal(b1-3)GlcNAc6S
Outline: as §1

[29] = molecular target: Neu5Ac(a2-3)Gal(b1-3)[Fuc(a1-4)]GlcNAc
Outline: as §1

[30] = molecular target: Neu5Ac(a2-3)Gal(b1-3)[Fuc(a1-4)]GlcNAc(b1-3)Gal(b1-3)[Fuc(a1-4)]GlcNAc
Outline: as §1

[31] = molecular target: Neu5Ac(a2-3)Gal(b1-3)[Fuc(a1-4)]GlcNAc(b1-3)Gal(b1-4)[Fuc(a1-3)]GlcNAc
Outline: as §1

[32] = molecular target: Neu5Ac(a2-3)Gal(b1-3)[GlcNAc(b1-6)]GalNAc
Outline: as §1

[33] = molecular target: Neu5Ac(a2-3)Gal(b1-3)[Neu5Ac(a2-3)Gal(b1-4)]GlcNAc
Outline: as §1

[34] = molecular target: Neu5Ac(a2-3)Gal(b1-3)[Neu5Ac(a2-6)]GalNAc
Outline: as §1

[35] = molecular target: Neu5Ac(a2-3)Gal(b1-3)[Neu5Ac(a2-6)]GlcNAc(b1-3)[Fuc(a1-3)[Gal(b1-4)]GlcNAc(b1-6)]Gal(b1-4)Glc
Outline: as §1

[36] = molecular target: Neu5Ac(a2-3)Gal(b1-3)]Neu5Ac(a2-3)Gal(b1-4)]GlcNAc
Outline: as §1

Neu5Ac(a2-3)Gal(b1-4)Glc = molecular target: Neu5Ac(a2-3)Gal(b1-4)Glc
Outline: as §1

[37] = molecular target: Neu5Ac(a2-3)Gal(b1-4)GlcNAc
Outline: as §1

[38] = molecular target: Neu5Ac(a2-3)Gal(b1-4)GlcNAc(b1-2)Man
Outline: as §1

B1: Gal 1 (Mus musculus), P16045 (protein)
chain: MACGLVASNLNLKPGECLKVRGEVASDAKSFVLNLGKDSNNLCLHFNPRFNAHGDANTIVCNTKEDGTWGTEHREPAFPFQPGSITEVCITFDQADLTIKLPDGHEFKFPNRLNMEAINYMAADGDFKIKCVAFE
**Q.** For B1, which “glycan array binding signal (z-score)” value [1] is on record?
**A.** -0.249

**Q.** What about the “glycan array binding signal (z-score)” value [2] of the same binder?
**A.** -0.155

**Q.** And the “glycan array binding signal (z-score)” value (Man(a1-2)Man(a1-3)Man)?
**A.** -0.297

**Q.** What about the “glycan array binding signal (z-score)” value [3] of the same binder?
**A.** -0.392

**Q.** What about the “glycan array binding signal (z-score)” value [4] of the same binder?
**A.** -0.423

**Q.** And the “glycan array binding signal (z-score)” value [5]?
**A.** 0.079

**Q.** And the “glycan array binding signal (z-score)” value [6]?
**A.** -0.347

**Q.** And the “glycan array binding signal (z-score)” value [7]?
**A.** 0.008

**Q.** What about the “glycan array binding signal (z-score)” value [8] of the same binder?
**A.** -0.317

**Q.** And the “glycan array binding signal (z-score)” value (Man(a1-3)[Man(a1-6)]Man)?
**A.** -0.332

**Q.** What about the “glycan array binding signal (z-score)” value [9] of the same binder?
**A.** 0.925

**Q.** What about the “glycan array binding signal (z-score)” value [10] of the same binder?
**A.** -0.285

**Q.** What about the “glycan array binding signal (z-score)” value [11] of the same binder?
**A.** -0.238

**Q.** And the “glycan array binding signal (z-score)” value [12]?
**A.** -0.209

**Q.** And the “glycan array binding signal (z-score)” value [13]?
**A.** -0.16

**Q.** What about the “glycan array binding signal (z-score)” value (Man(a1-6)Man) of the same binder?
**A.** 0.23

**Q.** And the “glycan array binding signal (z-score)” value (Man(b1-4)GlcNAc)?
**A.** -0.381

**Q.** What about the “glycan array binding signal (z-score)” value (MurNAc(b1-4)GlcNAc) of the same binder?
**A.** -0.408

**Q.** What about the “glycan array binding signal (z-score)” value (Neu5Ac(a2-3)Gal) of the same binder?
**A.** -0.298

**Q.** What about the “glycan array binding signal (z-score)” value [14] of the same binder?
**A.** -0.319

**Q.** What about the “glycan array binding signal (z-score)” value [15] of the same binder?
**A.** -0.091

**Q.** And the “glycan array binding signal (z-score)” value [16]?
**A.** -0.41

**Q.** And the “glycan array binding signal (z-score)” value [17]?
**A.** -0.143

**Q.** And the “glycan array binding signal (z-score)” value [18]?
**A.** -0.145

**Q.** And the “glycan array binding signal (z-score)” value [19]?
**A.** -0.215

**Q.** And the “glycan array binding signal (z-score)” value [20]?
**A.** 0.627

**Q.** And the “glycan array binding signal (z-score)” value [21]?
**A.** -0.114

**Q.** What about the “glycan array binding signal (z-score)” value [22] of the same binder?
**A.** -0.124

**Q.** And the “glycan array binding signal (z-score)” value [23]?
**A.** 0.189

**Q.** What about the “glycan array binding signal (z-score)” value [24] of the same binder?
**A.** 0.036

**Q.** What about the “glycan array binding signal (z-score)” value [25] of the same binder?
**A.** 0.06

**Q.** And the “glycan array binding signal (z-score)” value [26]?
**A.** -0.25

**Q.** What about the “glycan array binding signal (z-score)” value [27] of the same binder?
**A.** -0.225

**Q.** And the “glycan array binding signal (z-score)” value [28]?
**A.** -0.1

**Q.** And the “glycan array binding signal (z-score)” value [29]?
**A.** -0.322

**Q.** And the “glycan array binding signal (z-score)” value [30]?
**A.** -0.129

**Q.** And the “glycan array binding signal (z-score)” value [31]?
**A.** -0.174

**Q.** And the “glycan array binding signal (z-score)” value [32]?
**A.** -0.308

**Q.** And the “glycan array binding signal (z-score)” value [33]?
**A.** 0.068

**Q.** What about the “glycan array binding signal (z-score)” value [34] of the same binder?
**A.** -0.244

**Q.** What about the “glycan array binding signal (z-score)” value [35] of the same binder?
**A.** -0.313

**Q.** What about the “glycan array binding signal (z-score)” value [36] of the same binder?
**A.** -0.057

**Q.** What about the “glycan array binding signal (z-score)” value (Neu5Ac(a2-3)Gal(b1-4)Glc) of the same binder?
**A.** -0.219

**Q.** And the “glycan array binding signal (z-score)” value [37]?
**A.** -0.256

**Q.** What about the “glycan array binding signal (z-score)” value [38] of the same binder?
**A.** 0.309
